Drawing on PubChem BioAssay (NCI), this text covers GI50 and TGI for four molecules.

Structures are written as SMILES.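 Exposure lasted 48 hours, with cells grown in 96-well plates and compounds tested at five concentrations. Here, GI50 denotes the concentration required for 50% inhibition of growth. TGI is the concentration that stops growth completely.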

For the assay, the system named is NCI-H322M lung. The assay is described as follows: inhibition of tumour cell growth, NCI panel, 48 h.
Take `O=C1Nc2cc(OC(F)(F)F)ccc2Oc2ccc(-c3ccnc(N4CCNCC4)c3)cc21`: the GI50 was 1530 nM and the TGI was found to be 2900 nM.

Turning to `CSc1ccc(/C(=N/N=C(N)N)c2ccc(F)cc2)cc1`, the GI50 is 627 nM and the TGI was 15100 nM.

With `COc1ccc(Cn2cc3c(c2-c2cc(OC)c(OC)c(OC)c2)CCc2c(CN4CCCC4)noc2-3)cc1`, the GI50 was 5540 nM and the TGI is greater than 100000 nM.

With `O=C(NNc1nc2cc(F)c(F)cc2n2c(CN3CC4CNCC4C3)ccc12)c1ncccn1` (stereo not drawn), the GI50 was 1820 nM and the TGI stood at 25600 nM.
